# Measured values taken from PubChem BioAssay AID686979 (National Center for Advancing Translational Sciences (NCATS), 2013).
# Among all 420,000 compounds or so, about 50,000 (12%) were called active. Inconclusive means that the source gave no clear call. Such entries were picked first, then a sample of the others. Calls come from the whole dose curve; as a rule, active = well fitted inhibition curve with a large enough effect; inconclusive = small, poorly fitted or top-dose-only effect; inactive = flat fitted curve, though single readings scatter. No potency is given beside an inconclusive call; the fits are too rough.
# Test: qHTS for Inhibitors of human tyrosyl-DNA phosphodiesterase 1 (TDP1): qHTS in cells in presence of CPT; note: nearly all actives have a fitted effect of over 55% in size
# Conditions: chicken DT40 Tdp1-/-;hTDP1 cells + 20 nM CPT, ATP luminescence, 48 h; activity change, negative = growth inhibition: at 46.2 µM (top of the series)
# Summary of the method: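 Chicken DT40 Tdp1-/- cells stably complemented with human TDP1 were seeded at 400 cells/well in medium containing 20 nM camptothecin, exposed to pin-transferred compounds, and grown at 37 °C for at least 48 hr. Viability was read as ATP luminescence.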
# % is set by controls: 0 for no effect and ±100 for the full control effect; potency is the fitted concentration of half-maximal effect; tags give direction and shape of the fitted curve.
Compound,Potency,"activity change, negative = growth inhibition"
Cc1ccc(C2CC(c3cccc(Br)c3)Nc3nnnn32)cc1 (configuration not stated),inactive,–
CCOc1ccccc1NC(=O)C(=O)c1cc(C)n(-c2ccc(F)cc2)c1C,"inconclusive [inhibitor, single point]",–
CCOc1ccc(-n2cc(-c3ccccc3)c3c(N4CCC(C)CC4)ncnc32)cc1,"inconclusive [inhibitor, single point]",–
S=C(c1ccc(N2CCOCC2)cc1)N1CCOCC1,"inconclusive [inhibitor, partial curve]",–
CCC(C)COC(=O)C(C#N)c1nc2ccccc2nc1N1CCCCC1 (configuration not stated),"inconclusive [inhibitor, single point]",–
O=C(COCc1ccccc1)N[C@@H]1c2ccccc2CC[C@@H]1OCc1ccccc1,"inconclusive [inhibitor, single point]",–
O=C(CCn1c(=O)[nH]c2ccsc2c1=O)NCc1ccc(F)cc1,inactive,–
CC(C)(CC(=O)O)CC(=O)NCc1c(Cl)cccc1Oc1ccccc1,inactive,–
CN(CC(=O)NC(c1ccccc1)c1ccccc1)Cc1nc2ccccc2c(=O)[nH]1,"inconclusive [inhibitor, partial curve]",–
CC1(c2nnc(-c3cccc(Cl)c3)o2)CC(c2c(Cl)cccc2Cl)=NO1 (configuration not stated),"inconclusive [inhibitor, single point]",–
COc1ccc(N=C2S/C(=C\c3cc(C)n(C)c3C)C(=O)N2C)cc1,"inconclusive [inhibitor, single point]",–
Brc1ccc2nc(C3CCCCC3)c(Cc3ccccc3)n2c1,"inconclusive [inhibitor, single point]",–
O=CN/N=C/c1c(O)ccc2ccccc12,active: 7.31 µM,–
Cc1ccc(Nc2c(-c3ccc(C)cc3)nc3ccc(C)cn23)cc1,"inconclusive [inhibitor, full curve]",–
O=C(COc1ccc([N+](=O)[O-])cc1)NNC(=O)Nc1ccc([N+](=O)[O-])cc1,"inconclusive [inhibitor, full curve, poor fit]",–
O=C(O)c1ccccc1NS(=O)(=O)c1cccc(-n2sc3ccccc3c2=O)c1,active: 14.6 µM,–
COc1ccc(C(=O)NNC(=O)c2cc3ccccc3cc2O)cc1,"inconclusive [inhibitor, single point]",–
C[C@@H]1CN([C@@H](C)CO)C(=O)c2cc(NC(=O)CCC(F)(F)F)ccc2O[C@H]1CN(C)S(=O)(=O)c1ccc(Cl)cc1,inactive,–
O=C(O)CCN1C(=O)C2C3c4ccccc4C(c4ccccc43)C2C1=O (configuration not stated),"inconclusive [inhibitor, single point]",–
Cc1ccc(S(=O)(=O)c2nc(-c3ccc(F)cc3)oc2SCC(=O)c2ccccc2)cc1,"inconclusive [inhibitor, single point]",–
CCCOc1ccc(CNC(=O)Cn2cc3c(n2)-c2c(oc(C(=O)N4CCOCC4)c2C)CC3)cc1,"inconclusive [inhibitor, single point]",–
C=CCc1cccc(CNc2nc3ccccc3n2CC)c1O,"inconclusive [inhibitor, single point]",–
CC12CCC(C(=O)N(Cc3ccccc3)Cc3ccccc3)(OC1=O)C2(C)C (configuration not stated),active: 18.4 µM,–

Compound,Potency,"activity change, negative = growth inhibition"
Nc1ccc2nc(SCC(=O)c3ccccc3)sc2c1,"inconclusive [inhibitor, partial curve]",–
Clc1cccc(Cl)c1CNc1ccc(N2CCCC2)cc1,active: 6.51 µM,–
CCc1ccc(S(=O)(=O)NCc2nc3cccnc3n2Cc2ccccc2Cl)cc1,"inconclusive [inhibitor, single point]",–
CCc1ccc(/C=C2/SC(=S)N(CCC(=O)Nc3cccnc3)C2=O)cc1,"inconclusive [inhibitor, single point]",–
CCC(C)N1CCN(C(=O)C2CCN(S(=O)(=O)c3c(C)noc3/C=C/c3ccco3)CC2)CC1 (configuration not stated),"inconclusive [inhibitor, single point]",–
CCOc1cc(N2CCOCC2)c(OCC)cc1NC(=O)C(NC(=O)c1ccco1)C(C)C (configuration not stated),inactive,–
COc1cccc(-n2c(SCC(=O)N3CCCc4ccccc43)nc3c([nH]c4ccccc43)c2=O)c1,"inconclusive [inhibitor, single point]",–
COc1cc(OC)nc(C(NC(=O)C2CCN(Cc3ccc(Oc4ccccc4)cc3)CC2)c2ccccc2C)n1 (configuration not stated),"inconclusive [inhibitor, single point]",–
COc1cc(NC(=O)NC(C)c2c(-n3cccc3)sc3c2CCN(C)C3)cc(OC)c1 (configuration not stated),active: 23.1 µM,–
COc1cc(OC)cc(C(=O)N(Cc2nc(-c3cccc(C)c3)no2)C(C)C)c1,"inconclusive [inhibitor, single point]",–
COc1cc(C(=O)Nc2ccc(NC(=O)c3ccccc3Cl)nc2)cc(OC)c1OC,"inconclusive [inhibitor, single point]",–
O=C(c1csnn1)N1CCC[C@@]2(CCN(C(c3ccccc3)c3ccccc3)C2)C1,"inconclusive [inhibitor, single point]",–
Cc1ccc(NC(=O)c2cnc(SCC(=O)NCC3CCCO3)n(C)c2=O)cc1C (configuration not stated),active: 20.6 µM,–
O=C(c1cccnc1)C1CCCN(Cc2ccc3c(c2)CN(C(=O)c2cn4ccccc4n2)CCO3)C1 (configuration not stated),–,inactive: -2.75% [at 9.04 µM]
O=C(c1ccc2c(c1)CCCC2)N1CCN(c2nc3ccc(F)cc3s2)CC1,"inconclusive [inhibitor, single point]",–
CCOC(=O)c1cnn(-c2ccccc2)c1NC(=O)C(F)(F)C(F)(F)C(F)(F)F,"inconclusive [inhibitor, partial curve, poor fit]",–
O=C(c1ccccc1)c1ccc(-n2cnnc2)c([N+](=O)[O-])c1,"inconclusive [inhibitor, single point]",–
Cc1ccc2cc(CN(C(=O)c3cccs3)c3ccccc3)c(=O)[nH]c2c1,"inconclusive [inhibitor, single point]",–
COCCNc1nc(-c2ccccc2)nc2c1oc1ccccc12,inactive,–
COc1cc(CN(C)Cc2cc(=O)oc3cc(C)c(Cl)cc23)ccc1OC(F)F,"inconclusive [inhibitor, single point]",–
COc1ccc(S(=O)(=O)N2CCOCC2)cc1NC(=O)CN1C(=O)CN(C)C1=O,inactive,–
CCN(CC)C(=S)SCC(=O)Nc1nc(=O)c2ccccc2s1,"inconclusive [inhibitor, partial curve]",–
CC1(NC(=O)c2ccccc2)CCN(CCc2cccs2)C1=O (configuration not stated),inactive,–

Compound,Potency,"activity change, negative = growth inhibition"
Cc1ccc(N(CC(=O)Nc2ccc3c(c2)OCCO3)S(=O)(=O)c2c(C)noc2C)cc1,"inconclusive [inhibitor, single point]",–
CCN(CC(=O)Nc1c(F)cccc1F)C(=O)CCc1nc2cc(S(=O)(=O)N(C)C)ccc2n1CC,inactive,–
O=C(NCCC1=CCCCC1)C1CCN(c2nnc(-n3cccc3)s2)CC1,"inconclusive [inhibitor, single point]",–
Cc1cnc(C(=O)NC2CC(C)(C)Cc3c2cnn3-c2cccc(F)c2)cn1 (configuration not stated),"inconclusive [inhibitor, single point]",–
CCc1ccc(C2=Nn3c(nnc3-c3cccs3)SC2)cc1,"inconclusive [inhibitor, single point]",–
Cc1ccccc1S(=O)(=O)N1C[C@H]2CON(C)[C@H]2C[C@H]1c1cccc(-c2ccc(C#N)cc2)c1,active: 20.6 µM,–
O=C(C1COc2ccccc2O1)N1CCN(Cc2ccc3c(c2)OCO3)CC1 (configuration not stated),–,inconclusive: -32.5% [inhibitor]
CC1CCCC(NC(=O)C2CCN(S(=O)(=O)N3CCCCC3)CC2)C1C (configuration not stated),"inconclusive [inhibitor, single point]",–
COc1cc(/C=N/Nc2nc(C)cc(C)n2)cc(OC)c1OC,inactive,–
Cc1ccc(-c2ccnc3c(Cl)c(C)nn23)cc1,"inconclusive [inhibitor, partial curve, poor fit]",–
COC(=O)c1cc(NC2c3ccccc3C(=O)N2c2ccc(Cl)cn2)cc(C(=O)OC)c1 (configuration not stated),"inconclusive [inhibitor, single point]",–
COc1cccc(C2CC(=O)Nc3cc(OC)c(OC)c(OC)c32)c1OC (configuration not stated),"inconclusive [inhibitor, single point]",–
CCCCCCSc1nsc(NC(=O)CCC)n1,inactive,–
O=S(=O)(c1ccccc1)N1CCC[C@@]2(CCN(c3cccc(-c4ccccc4)c3)C2)C1,"inconclusive [inhibitor, single point]",–
CNc1cc(-c2ccc(OC)c(OC)c2)ncn1,"inconclusive [inhibitor, partial curve]",–
CN(C)CC1(C)Cc2ccsc2C1O (configuration not stated),inactive,–
CCCc1c(C(=O)N2CCN(c3ccccc3OC)CC2)cnn1-c1ccccc1,"inconclusive [inhibitor, single point]",–
CCN1CCN(c2c(S(=O)(=O)c3ccc(Cl)cc3)cnc3ccccc23)CC1,active: 13 µM,–
COC(=O)CNC(=O)COC(=O)Cc1ccc(Cl)cc1,inactive,–
COc1ccc(C(C)(O)c2nc(-c3cccc(C(C)C)c3)cs2)cc1 (configuration not stated),"inconclusive [inhibitor, partial curve]",–
O=C(N/N=C/c1cccc(F)c1)c1c(O)c2ccccc2[nH]c1=O,active: 2.31 µM,–
